Measurements as given in PMC6168491, “Sin3A recruits Tet1 to the PAH1 domain via a highly conserved Sin3-Interaction Domain” (Scientific Reports, 2018).
Where two headings read alike, the source gives them in different places. No constants are given. Whether binding was seen depends on the method and setting. For some of these results: In cells and extracts the contact can be indirect. Some entries that bind do so weakly or less than the wild type. For some of these results: Where a sequence is shown, tags or fusion partners need not be part of it. One block for each molecule: values may come before it.

Columns and labels:
[1] = biological target: T1, PAH1-His (Sin3A-PAH1 115–212) (UniProt Q60520); experiment: SEC; analytical gel filtration of purified GB1-Tet1(878–911) and His-PAH1 mixed at a 1:1 ratio; complex read from earlier elution; both purified
T1 sequence: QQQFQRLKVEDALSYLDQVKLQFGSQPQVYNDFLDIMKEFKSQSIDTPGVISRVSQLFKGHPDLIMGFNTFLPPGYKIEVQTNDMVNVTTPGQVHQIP

[2] = biological target: Tet1-SID(878–911) for NMR (UniProt Q3URK3); experiment: NMR titration; 15N-HSQC of the free Tet1-SID and after addition of PAH1 (Supplementary Fig. S6); both purified
GST-Tet1 878–911 I894A = biological target: T2, GST-Tet1 878–911 I894A (UniProt Q3URK3); experiment: pull-down; GST fusion bound to glutathione-Sepharose beads; partner in vitro translated with [35S]-methionine; 150 mM NaCl, 20 mM Tris pH 8.0, 1 mM EDTA, 0.5% IGEPAL CA-630, 3 h; SDS-PAGE and phosphorImager; only the target purified
T2 sequence: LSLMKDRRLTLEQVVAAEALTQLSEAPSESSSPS

[3] = biological target: T3, GST-Tet1 878–911 A893D/A896D (UniProt Q3URK3); experiment: as above
T3 sequence: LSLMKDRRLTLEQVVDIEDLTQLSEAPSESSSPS

[4] = biological target: T4, GST-Tet1 878–911 L897A/L900A (UniProt Q3URK3); experiment: as above
T4 sequence: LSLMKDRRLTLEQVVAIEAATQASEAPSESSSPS

GST-Tet1(878–911) = GST-Tet1(878–911) (UniProt Q3URK3); experiment: as above
[5] = biological target: T1, PAH1-His (Sin3A-PAH1 115–212); experiment: SEC; analytical gel filtration of purified GB1-Tet1(878–911) and His-PAH1 mixed at a 1:1 ratio; complex read from earlier elution; both purified; remark: listed apart in the source

Molecule: GB1-Tet1(878–911) (from UniProt Q3URK3 861-894) (domain or fragment)
binding [1]: binds

B1: PAH1(115–212) for NMR (domain or fragment, UniProt Q60520 115-212)
chain: QQQFQRLKVEDALSYLDQVKLQFGSQPQVYNDFLDIMKEFKSQSIDTPGVISRVSQLFKGHPDLIMGFNTFLPPGYKIEVQTNDMVNVTTPGQVHQIP
binding [2]: binds

B3: Sin3A 1–479 (domain or fragment, UniProt Q60520 1-479)
chain: MKRRLDDQESPVYAAQQRRIPGSTEAFSHQHRVLAPAPPVYEAVSETMQSATGIQYSVAPNYQVSAVPQSSGSHGPAIAAVHSSHHHPTAVQPHGGQVVQSHAHPAPPVAPVQGQQQFQRLKVEDALSYLDQVKLQFGSQPQVYNDFLDIMKEFKSQSIDTPGVISRVSQLFKGHPDLIMGFNTFLPPGYKIEVQTNDMVNVTTPGQVHQIPTHGIQPQPQPPPQHPSQPSSQSAPTPAQPAPQPTAAKVSKPSQLQAHTPASQQTPPLPPYASPRSPPVQPHTPVTISLGTAPSLQNNQPVEFNHAINYVNKIKNRFQGQPDIYKAFLEILHTYQKEQRNAKEAGGNYTPALTEQEVYAQVARLFKNQEDLLSEFGQFLPDANSSVLLSKTTAEKVDSVRNDHGGTVKKPQLNNKPQRPSQNGCQIRRHSGTGATPPVKKKPKLMSLKESSMADASKHGVGTESLFFDKVRKALRSAE
modifications: [35S]-methionine label
binding (GST-Tet1(878–911)): binds

B6: Sin3A 1–205 (domain or fragment, UniProt Q60520 1-205)
chain: MKRRLDDQESPVYAAQQRRIPGSTEAFSHQHRVLAPAPPVYEAVSETMQSATGIQYSVAPNYQVSAVPQSSGSHGPAIAAVHSSHHHPTAVQPHGGQVVQSHAHPAPPVAPVQGQQQFQRLKVEDALSYLDQVKLQFGSQPQVYNDFLDIMKEFKSQSIDTPGVISRVSQLFKGHPDLIMGFNTFLPPGYKIEVQTNDMVNVTTP
modifications: [35S]-methionine label
binding (GST-Tet1(878–911)): binds

The remaining lines, values ahead:

binding (GST-Tet1 878–911 I894A): binds | binding [3]: no binding | binding [4]: no binding | binding (GST-Tet1(878–911)): binds
B2: full-length 35S-Met labelled Sin3A (protein, UniProt Q60520 1-1274)
chain: MKRRLDDQESPVYAAQQRRIPGSTEAFSHQHRVLAPAPPVYEAVSETMQSATGIQYSVAPNYQVSAVPQSSGSHGPAIAAVHSSHHHPTAVQPHGGQVVQSHAHPAPPVAPVQGQQQFQRLKVEDALSYLDQVKLQFGSQPQVYNDFLDIMKEFKSQSIDTPGVISRVSQLFKGHPDLIMGFNTFLPPGYKIEVQTNDMVNVTTPGQVHQIPTHGIQPQPQPPPQHPSQPSSQSAPTPAQPAPQPTAAKVSKPSQLQAHTPASQQTPPLPPYASPRSPPVQPHTPVTISLGTAPSLQNNQPVEFNHAINYVNKIKNRFQGQPDIYKAFLEILHTYQKEQRNAKEAGGNYTPALTEQEVYAQVARLFKNQEDLLSEFGQFLPDANSSVLLSKTTAEKVDSVRNDHGGTVKKPQLNNKPQRPSQNGCQIRRHSGTGATPPVKKKPKLMSLKESSMADASKHGVGTESLFFDKVRKALRSAEAYENFLRCLVIFNQEVISRAELVQLVSPFLGKFPELFNWFKNFLGYKESVHLESFPKERATEGIAMEIDYASCKRLGSSYRALPKSYQQPKCTGRTPLCKEVLNDTWVSFPSWSEDSTFVSSKKTQYEEHIYRCEDERFELDVVLETNLATIRVLEAIQKKLSRLSAEEQAKFRLDNTLGGTSEVIHRKALQRIYADKAADIIDGLRKNPSIAVPIVLKRLKMKEEEWREAQRGFNKVWREQNEKYYLKSLDHQGINFKQNDTKVLRSKSLLNEIESIYDERQEQATEENAGVPVGPHLSLAYEDKQILEDAAALIIHHVKRQTGIQKEDKYKIKQIMHHFIPDLLFAQRGDLSDVEEEEEEEMDVDEATGAPKKHNGVGGSPPKSKLLFSNTAAQKLRGMDEVYNLFYVNNNWYIFMRLHQILCLRLLRICSQAERQIEEENREREWEREVLGIKRDKSDSPAIQLRLKEPMDVDVEDYYPAFLDMVRSLLDGNIDSSQYEDSLREMFTIHAYIAFTMDKLIQSIVRQLQHIVSDEVCVQVTDLYLAENNNGATGGQLNSQTSRSLLESAYQRKAEQLMSDENCFKLMFIQSQGQVQLTVELLDTEEENSDDPVEAERWSDYVERYMSSDTTSPELREHLAQKPVFLPRNLRRIRKCQRGREQQEKEGKEGNSKKTMENVESLDKLECRFKLNSYKMVYVIKSEDYMYRRTALLRAHQSHERVSKRLHQRFQAWVDKWTKEHVPREMAAETSKWLMGEGLEGLVPCTTTCDTETLHFVSINKYRVKYGTVFKAP
modifications: [35S]-methionine label

binding [5]: binds
B4: Tet1-SID(878–911) I894A for NMR (domain or fragment, UniProt Q3URK3 861-894, looked up)
chain: LSLMKDRRLTLEQVVAAEALTQLSEAPSESSSPS
notes: Tag removal for NMR was conducted as needed

binding [5]: binds
B5: Tet1-SID(878–911) T898A for NMR (domain or fragment, UniProt Q3URK3 861-894, looked up)
chain: LSLMKDRRLTLEQVVAIEALAQLSEAPSESSSPS
notes: as for B4
